Hit rate of the full screen: of about 48,000 compounds, about 1,200 (2.5%) were called active. About 2% were inconclusive and are not listed.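 How the source made its calls: active means activation of at least 60% and not above a set upper limit (about 1 call in 100 departs from these limits); inconclusive means activation of 40% to 60%, or above that upper limit; inactive means activation under 40%.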 Some of the results follow.
Molecular target: Probable G-protein coupled receptor 32 (Homo sapiens) (UniProt O75388)
UniProt O75388, sequence (O75388 whole entry, looked up): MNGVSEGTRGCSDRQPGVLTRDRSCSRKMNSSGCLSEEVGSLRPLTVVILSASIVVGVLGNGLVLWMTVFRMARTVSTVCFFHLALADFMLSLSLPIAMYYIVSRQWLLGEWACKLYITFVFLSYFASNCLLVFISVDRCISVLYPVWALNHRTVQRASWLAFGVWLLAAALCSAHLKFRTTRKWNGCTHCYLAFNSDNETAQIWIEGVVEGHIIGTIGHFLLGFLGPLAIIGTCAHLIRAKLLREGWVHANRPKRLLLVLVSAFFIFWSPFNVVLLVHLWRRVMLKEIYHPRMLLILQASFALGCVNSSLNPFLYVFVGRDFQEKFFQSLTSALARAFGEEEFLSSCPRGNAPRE
Assay: qHTS for Agonists of Human Resolvin D1 Receptor DRV1; further: 0% is about no effect
Conditions: CHO-K1 GPR32 beta-arrestin PathHunter luminescence, 90 min; at 76.9 µM; active compounds read high; zero percent set by DMSO-only wells
Procedure, shortened: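 Engineered CHO-K1 line co-expressing GPR32-ProLink and EA-beta-arrestin. Compound treatment lasted 90 min at 37 °C. Luminescence was recorded after 1 h with substrate at ambient temperature, relative to DMSO basal wells.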

activation, inactive:
COc1cc(-c2noc(CCC(=O)Nc3cc(C)ccc3C)n2)cc(OC)c1OC 6.98%
COc1ccc(NC(=O)C(Cc2ccccc2)n2cccc2)cc1OC (stereo not drawn) -8.38%
Cc1ccc(-n2ncc(C(=O)NCCc3c[nH]c4ccccc34)c2C2CCN(C(=O)OC(C)(C)C)CC2)cc1C 3.21%
COc1ccc(NC(=O)CCS(=O)(=O)c2ccc3nc(C)sc3c2)cc1Cl -2.04%
CCn1c(=O)c2sccc2n2c(CCC(=O)N3CCN(c4ccc(C(C)=O)cc4)CC3)nnc12 1.24%
Cc1ccccc1C(=O)N(Cc1nc(-c2ccc(Cl)cc2)no1)C(C)C -11.7%
CNC(=O)c1c(NC(=O)/C=C/c2ccccc2Cl)sc2c1CCC2 0.48%
Cc1ccc(OC(=O)CSc2nnc(-c3cccs3)o2)cc1 4.83%
CCC(=O)Nc1ccc(CC)cc1-c1nc2ccccc2n(Cc2ccccc2)c1=O -24.6%
COc1ccc(C(=O)c2oc3ccccc3c2NC(=O)COc2cccc(C)c2C)cc1 -6.36%
O=C(Cn1c(-c2cccs2)cc2cc(Cl)ccc21)N1CCN(c2ccccc2F)CC1 0.12%
CC(NC(=O)CN(c1ccc(Cl)cc1Cl)S(=O)(=O)c1ccccc1)c1ccccc1 (stereo not drawn) -30.5%
CC1CCC(NC(=O)c2cc3c(Cl)nc4ccccc4c3s2)CC1 (stereo not drawn) 14.4%
O=C(Cn1ccc2cc(S(=O)(=O)N3CCCCC3)ccc21)NCc1cccc(Cl)c1 19.2%
Cc1cc(S(=O)(=O)NCC(c2ccco2)S(=O)(=O)c2ccccc2)ccc1F (stereo not drawn) -14.1%
Cc1cc(C)c(NC(=O)Cn2nnc(-c3ccccc3)n2)c(C)c1 -10.5%
CCOC(=O)C(C)NC(=O)C1CCN(c2ncnc3c2nc2n3CCCCC2)CC1 (stereo not drawn) 5.2%
CCOc1ccccc1NC(=O)Cn1c(=O)n(Cc2ccccc2)c(=O)c2cccnc21 -34.7%
CC(=O)Nc1ccccc1-c1nc2ccccc2n(Cc2cccc(Br)c2)c1=O -10.4%
COc1ccc(F)cc1S(=O)(=O)Nc1cccc(-c2ccc(N3CCCCCC3)nn2)c1 -7.48%
Cc1cccn2c(=O)cc(COc3cccc(NC(=O)COc4ccc(F)cc4)c3)nc12 -10.1%
O=C(CN1CCCN(Cc2ccccc2Cl)S1(=O)=O)NCc1ccccc1 -16.1%
CC(C)N(Cc1ccccc1)C(=O)Cn1ncc2c([nH]c3ccccc32)c1=O 21.1%
CNC(=O)[C@H]1O[C@@H](n2cnc3c(NCc4ccc(N)cc4)ncnc32)[C@H](O)[C@@H]1O 2.21%
CCc1nnc(NC(=O)C(=O)c2cc(C)n(-c3ccccc3)c2C)s1 -1.83%
Cc1ccc(CN(C(=O)COc2c(C)cccc2C)C2CCS(=O)(=O)C2)o1 (stereo not drawn) -29.4%
COC(=O)c1nc2n(n1)C(c1cc(OC)ccc1OC)C(C(=O)Nc1ccc(C)cc1C)=C(C)N2 (stereo not drawn) 4.26%
COc1ccc(/C=C\C(=O)NC2CC(=O)N(c3ccccc3)C2)cc1OC (stereo not drawn) -6.19%
COc1cc(NC(=O)c2nc(-c3ccncc3)no2)cc(OC)c1OC -7.61%
Cc1ccc(NC(=O)C(Cc2c[nH]c3ccccc23)NC(=O)OCC(C)C)cc1 (stereo not drawn) 7.29%
Cc1ccc(Cl)cc1N1CCN(CCNC(=O)Nc2ccccc2Cl)CC1 -5%
CC(C)(C)C(=O)NCCc1csc2nc(-c3ccc(F)cc3)nn12 0.566%
O=C(CCS(=O)(=O)c1cccc2nsnc12)Nc1ccc(F)cc1 3.86%
Cc1ccc(Cl)cc1NC(=O)C(=O)NCC(c1cccnc1)N1CCc2ccccc21 (stereo not drawn) -20.5%
COc1ccc2oc(-c3ccc(C)c(NC(=O)COc4cc(C)cc(C)c4)c3)nc2c1 -10.8%
CCc1ccc(-n2c(=O)c3c4c(sc3n(CC(=O)c3ccc(Cl)cc3)c2=O)CCC4)cc1 -0.438%
CSc1cccc(NC(=O)C2CCN(C(=O)c3cnn(-c4ccccc4)c3-n3cccc3)CC2)c1 17.2%
Cc1ccc2oc3c(c(=O)c2c1)C1(C(=O)N(C)c2ccccc21)N(CCCO)C3=O (stereo not drawn) -6.47%
Nc1ccc(O)c(C(=O)O)c1 -27.8%
O=C(c1ccccc1)N1c2ncnn2C2(CCCCC2)[C@@H]2CCCC[C@@H]21 -4.44%
Cc1ccc(-n2nnc(C(=O)Nc3cc(F)ccc3F)c2C)cc1F -1.31%
Cc1nn(-c2ccc(N3CCOCC3)nn2)c(C)c1CCC(=O)NCc1ccc(F)cc1 0%
Cc1ccccc1C(=O)Nc1cc(-c2ccc(Cl)cc2)nn1-c1ccccc1 30.9%
Cc1ccc2c(c1)C(c1ccc(F)cc1)N(C(=O)c1ccc(OC(C)C)cc1)CC(=O)N2 (stereo not drawn) -12.9%
COc1cc2[nH]c(=O)n(CCCC(=O)N3CCN(c4cccc(C(F)(F)F)c4)CC3)c(=O)c2cc1OC -0.437%
Cc1ccn2c(=O)cc(COc3ccc(NC(=O)c4ccccc4F)cc3)nc2c1 0.256%
Cn1ncc2nc(SCC(=O)Nc3ccc(Br)cc3F)n(Cc3ccccc3)c(=O)c21 -12.3%
CCOc1ccc(NC(=O)CSc2nc3c(oc4ccccc43)c(=O)n2CCOC)cc1 19.7%
COc1ccc(C(=O)CSc2c(C(C)C)cnc3c2c(=O)n(C)c(=O)n3C)cc1 -19.9%
Cc1ccc(NC(=O)C2CCN(c3cc(C)nc4c(-c5ccc(Cl)cc5)c(C)nn34)CC2)c(C)c1 -17.3%
COc1ccccc1N1CCN(C(=O)CN2C(=O)COc3ccc(S(=O)(=O)N4CCC(C)CC4)cc32)CC1 -17%
Cc1ccc(C)c(CSc2nc3ccncc3n2CC(=O)Nc2ccc(N(C)C)cc2)c1 -20.9%
Cc1cccc2nc(-c3cccc(NS(=O)(=O)c4ccccc4)c3)cn12 12.4%
